Some of the results follow. Many values rest on one well or one pass, so single values are uncertain.
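Note: cells treated in 1,536-well plates, then fixed and DAPI-stained, with nuclei counted from automated high-throughput microscope images.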

In the test the test system is A101D. The test is described as follows: cell count relative to DMSO control; melanoma cells; higher = more viable cells. The settings on record: library dose: standard library concentration; 72 h.
With `Cc1ccc(Nc2nccc(N(C)c3ccc4c(C)n(C)nc4c3)n2)cc1S(N)(=O)=O` [Pazopanib] + O=C(O)c1ccc2c(c1)nc(Nc1cccc(Cl)c1)c1ccncc12 [CX4945] (first compound 2 µM, partner dose 2 µM), the cell count amounted to 70.4%. For the compound `CC1(C)CCC(c2ccc(Cl)cc2)=C(CN2CCN(c3ccc(C(=O)NS(=O)(=O)c4ccc(N[C@H](CCN5CCOCC5)CSc5ccccc5)c(S(=O)(=O)C(F)(F)F)c4)cc3)CC2)C1` + Nc1cccc2c1CN(C1CCC(=O)NC1=O)C2=O [lenalidomide] (first compound 2 µM, partner dose 5 µM), the cell count came out at 38.9%. Compound `O=C(/C=C/c1cccnc1)NCCCCC1CCN(C(=O)c2ccccc2)CC1` + CCN(CC)CCNC(=O)c1c(C)[nH]c(/C=C2\C(=O)Nc3ccc(F)cc32)c1C [sunitinib] (first compound 0.05 µM, partner dose 2 µM) returned a cell count of 58.1%.

Take `Cc1ccc(Nc2nccc(N(C)c3ccc4c(C)n(C)nc4c3)n2)cc1S(N)(=O)=O` [Pazopanib] + CO[C@H]1C[C@@H]2CC[C@@H](C)[C@@](O)(O2)C(=O)C(=O)N2CCCC[C@H]2C(=O)O[C@H]([C@H](C)C[C@@H]2CC[C@@H](OCCO)[C@H](OC)C2)CC(=O)[C@H](C)/C=C(\C)[C@@H](O)[C@@H](OC)C(=O)[C@H](C)C[C@H](C)/C=C/C=C/C=C/1C [everolimus] (first compound 2 µM, partner dose 0.1 µM): the cell count was 95.8%. As for `Cc1ccc(Nc2nccc(N(C)c3ccc4c(C)n(C)nc4c3)n2)cc1S(N)(=O)=O` [Pazopanib] + OCc1c[nH]c2ccccc12 [Indole-3-carbinol] (first compound 2 µM, partner dose 4 µM), the cell count was found to be 100%. Take `O=C(/C=C/c1cccnc1)NCCCCC1CCN(C(=O)c2ccccc2)CC1` + CN(C)S(=O)(=O)c1ccc2c(c1)/C(=C/c1cc3c([nH]1)CCCC3)C(=O)N2 [SU6656] (first compound 0.05 µM, partner dose 2 µM): the cell count amounted to 77.3%. Consider `O=C(/C=C/c1cccnc1)NCCCCC1CCN(C(=O)c2ccccc2)CC1` + CN(c1ncccc1CNc1nc(Nc2ccc3c(c2)CC(=O)N3)ncc1C(F)(F)F)S(C)(=O)=O [PF562271] (first compound 0.05 µM, partner dose 0.4 µM), for which the cell count worked out at 104%. Take `O=C(/C=C/c1cccnc1)NCCCCC1CCN(C(=O)c2ccccc2)CC1` + CN(NC(=O)CC(=O)NN(C)C(=S)c1ccccc1)C(=S)c1ccccc1 [STA4783] (first compound 0.05 µM, partner dose 0.03 µM): the cell count was 72.3%. For the compound `O=C(/C=C/c1cccnc1)NCCCCC1CCN(C(=O)c2ccccc2)CC1` + Cn1c(=O)n(-c2ccc(C(C)(C)C#N)cc2)c2c3cc(-c4cnc5ccccc5c4)ccc3ncc21 [NVP-BEZ235] (first compound 0.05 µM, partner dose 0.02 µM), the cell count amounted to 66.5%. Regarding `CC1(C)CCC(c2ccc(Cl)cc2)=C(CN2CCN(c3ccc(C(=O)NS(=O)(=O)c4ccc(N[C@H](CCN5CCOCC5)CSc5ccccc5)c(S(=O)(=O)C(F)(F)F)c4)cc3)CC2)C1` + CO[C@H]1C[C@@H]2CC[C@@H](C)[C@@](O)(O2)C(=O)C(=O)N2CCCC[C@H]2C(=O)O[C@H]([C@H](C)C[C@@H]2CC[C@@H](OCCO)[C@H](OC)C2)CC(=O)[C@H](C)/C=C(\C)[C@@H](O)[C@@H](OC)C(=O)[C@H](C)C[C@H](C)/C=C/C=C/C=C/1C [everolimus] (first compound 2 µM, partner dose 0.1 µM), the cell count is 36.6%.

Take `O=C(/C=C/c1cccnc1)NCCCCC1CCN(C(=O)c2ccccc2)CC1` + OCc1c[nH]c2ccccc12 [Indole-3-carbinol] (first compound 0.05 µM, partner dose 4 µM): the cell count stood at 83.3%. In the case of `CC1(C)CCC(c2ccc(Cl)cc2)=C(CN2CCN(c3ccc(C(=O)NS(=O)(=O)c4ccc(N[C@H](CCN5CCOCC5)CSc5ccccc5)c(S(=O)(=O)C(F)(F)F)c4)cc3)CC2)C1` + COc1ccc2c(c1)CCC1C2CCC2(C)C(NCCCCCCN3C(=O)C=CC3=O)CCC12 [U73122] (first compound 2 µM, partner dose 2 µM), the cell count came out at 31.2%.

`Cc1ccc(Nc2nccc(N(C)c3ccc4c(C)n(C)nc4c3)n2)cc1S(N)(=O)=O` [Pazopanib] + COc1cc2c(Oc3ccc4[nH]c(C)cc4c3F)ncnc2cc1OCCCN1CCCC1 [cediranib] (first compound 2 µM, partner dose 2 µM) returned a cell count of 88.2%. The figure for `O=C(/C=C/c1cccnc1)NCCCCC1CCN(C(=O)c2ccccc2)CC1` + CS(=O)(=O)CCNCc1ccc(-c2ccc3ncnc(Nc4ccc(OCc5cccc(F)c5)c(Cl)c4)c3c2)o1 [lapatinib] (first compound 0.05 µM, partner dose 4 µM) is 96%; for `Cc1ccc(Nc2nccc(N(C)c3ccc4c(C)n(C)nc4c3)n2)cc1S(N)(=O)=O` [Pazopanib] + CC(C)(C)c1cnc(CSc2cnc(NC(=O)C3CCNCC3)s2)o1 [SNS-032] (first compound 2 µM, partner dose 0.05 µM) it is 58.8%; for `Cc1ccc(Nc2nccc(N(C)c3ccc4c(C)n(C)nc4c3)n2)cc1S(N)(=O)=O` [Pazopanib] + Cn1nnc2c(C(N)=O)ncn2c1=O [temozolomide] (first compound 2 µM, partner dose 10 µM) it is 84.4%.

Consider `Cc1ccc(Nc2nccc(N(C)c3ccc4c(C)n(C)nc4c3)n2)cc1S(N)(=O)=O` [Pazopanib] + CC(C)C[C@H](NC(=O)[C@H](Cc1ccccc1)NC(=O)c1cnccn1)B(O)O [Bortezomib] (first compound 2 µM, partner dose 0.005 µM), for which the cell count came out at 15.8%.

As for `Cc1ccc(Nc2nccc(N(C)c3ccc4c(C)n(C)nc4c3)n2)cc1S(N)(=O)=O` [Pazopanib] + O=C(CCCCCCC(=O)Nc1ccccc1)NO [vorinostat] (first compound 2 µM, partner dose 0.4 µM), the cell count turned out to be 74.3%. The figure for `Cc1ccc(Nc2nccc(N(C)c3ccc4c(C)n(C)nc4c3)n2)cc1S(N)(=O)=O` [Pazopanib] + O=C(O)[C@@H]1[O][Sb](=[O])([O][Sb]2(=[O])[O][C@H]([C@H](O)CO)[C@H](O)[C@H](C(=O)O)[O]2)[O][C@H]([C@H](O)CO)[C@@H]1O [stibogluconate] (first compound 2 µM, partner dose 10 µM) is 84.8%; for `Cc1ccc(Nc2nccc(N(C)c3ccc4c(C)n(C)nc4c3)n2)cc1S(N)(=O)=O` [Pazopanib] + Cn1c(=O)n(-c2ccc(C(C)(C)C#N)cc2)c2c3cc(-c4cnc5ccccc5c4)ccc3ncc21 [NVP-BEZ235] (first compound 2 µM, partner dose 0.02 µM) it is 64.5%; for `O=C(/C=C/c1cccnc1)NCCCCC1CCN(C(=O)c2ccccc2)CC1` + O=C(Nc1cccc(Cl)c1)Nc1ncc(CCNc2ncnc3ccsc23)s1 [SNS314] (first compound 0.05 µM, partner dose 0.004 µM) it is 78.6%. The figure for `CC1(C)CCC(c2ccc(Cl)cc2)=C(CN2CCN(c3ccc(C(=O)NS(=O)(=O)c4ccc(N[C@H](CCN5CCOCC5)CSc5ccccc5)c(S(=O)(=O)C(F)(F)F)c4)cc3)CC2)C1` + C[C@]1(O)C[C@@H](c2nc(-c3ccc4ccc(-c5ccccc5)nc4c3)c3c(N)nccn32)C1 [OSI906] (first compound 2 µM, partner dose 2 µM) is 38%; for `Cc1ccc(Nc2nccc(N(C)c3ccc4c(C)n(C)nc4c3)n2)cc1S(N)(=O)=O` [Pazopanib] + Nc1nc(F)nc2c1ncn2[C@@H]1O[C@H](CO)[C@@H](O)[C@@H]1O [fludarabine] (first compound 2 µM, partner dose 1 µM) it is 75.6%; for `Cc1ccc(Nc2nccc(N(C)c3ccc4c(C)n(C)nc4c3)n2)cc1S(N)(=O)=O` [Pazopanib] + COCC[n+]1c2c(n(Cc3cnccn3)c1C)C(=O)c1ccccc1C2=O [YM155] (first compound 2 µM, partner dose 0.002 µM) it is 56.4%.

As for `Cc1ccc(Nc2nccc(N(C)c3ccc4c(C)n(C)nc4c3)n2)cc1S(N)(=O)=O` [Pazopanib] + Cn1cnc2c(F)c(Nc3ccc(Br)cc3Cl)c(C(=O)NOCCO)cc21 [selumetinib] (first compound 2 µM, partner dose 0.075 µM), the cell count was 76.1%.

On to `CC1(C)CCC(c2ccc(Cl)cc2)=C(CN2CCN(c3ccc(C(=O)NS(=O)(=O)c4ccc(N[C@H](CCN5CCOCC5)CSc5ccccc5)c(S(=O)(=O)C(F)(F)F)c4)cc3)CC2)C1` + CN(NC(=O)CC(=O)NN(C)C(=S)c1ccccc1)C(=S)c1ccccc1 [STA4783] (first compound 2 µM, partner dose 0.03 µM), for which the cell count was found to be 29.7%. Turning to `CC1(C)CCC(c2ccc(Cl)cc2)=C(CN2CCN(c3ccc(C(=O)NS(=O)(=O)c4ccc(N[C@H](CCN5CCOCC5)CSc5ccccc5)c(S(=O)(=O)C(F)(F)F)c4)cc3)CC2)C1` + O=C(O)[C@@H]1[O][Sb](=[O])([O][Sb]2(=[O])[O][C@H]([C@H](O)CO)[C@H](O)[C@H](C(=O)O)[O]2)[O][C@H]([C@H](O)CO)[C@@H]1O [stibogluconate] (first compound 2 µM, partner dose 10 µM), the cell count turned out to be 35.4%. Consider `O=C(/C=C/c1cccnc1)NCCCCC1CCN(C(=O)c2ccccc2)CC1` + Cn1nnc2c(C(N)=O)ncn2c1=O [temozolomide] (first compound 0.05 µM, partner dose 10 µM), for which the cell count is 97.5%.

The values are drawn from the supplement of paper PMC4604168 (melanoma cell lines).
